Experimental data taken from PubChem BioAssay AID1468 (National Center for Advancing Translational Sciences (NCATS), 2008).
The campaign covered roughly 280,000 compounds. About 1,100 (0.39%) were called active. Inconclusive results, whose numbers are uncertain, are shown with a selection of clear calls. Calls come from the whole dose curve; as a rule, active = well fitted inhibition curve with a large enough effect; inconclusive = small, poorly fitted or top-dose-only effect, or effect the other way; inactive = flat fitted curve, though single readings scatter. Potencies of inconclusive entries are left out as doubtful fits.

biological target: Microtubule-associated protein tau (Homo sapiens) (UniProt P10636); assay: qHTS for Inhibitors of Tau Fibril Formation, Fluorescence Polarization; details: K18 P301L tau heparin fibrillization, Alexa594 FP, 6 h; series mostly up to 57.7 µM; note: nearly all actives have a fitted effect of over 55% in size
Outline: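 Heparin (20 uM) drove fibril formation of recombinant tau K18 P301L, 15 uM unlabeled with 0.24 uM Alexa 594 label, for 6 hr at 37 C in 100 mM sodium acetate pH 7. Fluorescence polarization (555/632 nm) read 1 hr after 30 uM ThT.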
Potency is the fitted concentration of half-maximal effect; tags give direction and shape of the fitted curve.

Chain of UniProt P10636 (P10636 whole entry, looked up): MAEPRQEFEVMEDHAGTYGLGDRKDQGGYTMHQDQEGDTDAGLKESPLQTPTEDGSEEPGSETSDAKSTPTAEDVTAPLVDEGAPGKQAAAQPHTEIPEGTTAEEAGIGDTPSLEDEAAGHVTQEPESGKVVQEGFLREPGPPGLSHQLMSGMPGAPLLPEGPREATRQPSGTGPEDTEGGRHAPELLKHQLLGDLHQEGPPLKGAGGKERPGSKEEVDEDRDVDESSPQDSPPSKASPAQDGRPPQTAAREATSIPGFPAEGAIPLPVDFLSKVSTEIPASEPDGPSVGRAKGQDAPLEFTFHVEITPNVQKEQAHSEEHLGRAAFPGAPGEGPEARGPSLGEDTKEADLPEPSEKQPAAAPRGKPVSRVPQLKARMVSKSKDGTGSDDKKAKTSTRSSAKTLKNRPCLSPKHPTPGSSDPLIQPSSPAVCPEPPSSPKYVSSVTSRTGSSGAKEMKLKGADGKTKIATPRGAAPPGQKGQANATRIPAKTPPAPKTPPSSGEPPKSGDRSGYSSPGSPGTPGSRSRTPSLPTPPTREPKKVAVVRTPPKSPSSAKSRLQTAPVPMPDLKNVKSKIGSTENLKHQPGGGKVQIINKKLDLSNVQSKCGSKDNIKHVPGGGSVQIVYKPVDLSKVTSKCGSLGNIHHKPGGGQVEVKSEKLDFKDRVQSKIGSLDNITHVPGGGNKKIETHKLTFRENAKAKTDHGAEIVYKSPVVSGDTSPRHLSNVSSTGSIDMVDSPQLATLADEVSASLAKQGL

Structure (SMILES) | Potency
CCc1ccc(NC(=O)Cn2c(=O)n(-c3cc(OC)c(OC)c(OC)c3)c(=O)c3ccccc32)cc1 | inconclusive [inhibitor, single point]
CCc1ccc(NC(=O)c2ccc3nc(N)sc3c2)cc1 | active: 25.1 µM
Nc1nc2n(n1)C(c1ccc(Cl)cc1)CC(c1ccc(F)cc1)N2 (stereo not drawn) | inactive
N=C1C(c2nc3ccccc3s2)=C(O)CN1Cc1ccccc1 | inconclusive [inhibitor, partial curve]
Cc1ccc(NC(=S)Nc2ccc(OC(F)F)c(Cl)c2)cc1Cl | inconclusive [inhibitor, single point]
CCN(c1ccccc1)S(=O)(=O)c1ccc(Cl)c(NC(=O)CSc2ncn[nH]2)c1 | inactive
Oc1ccc(-c2nc3ccc4ccccc4c3c3c2CCC3)cc1O | inconclusive [activator, full curve]
CC(=O)c1ccc(NC(=O)Cn2ncc3c4ccccc4n(Cc4ccccc4)c3c2=O)cc1 | inconclusive [inhibitor, partial curve]
CCP(=O)(CC)C(C)(C)CP(=O)(c1ccccc1)c1ccccc1 | inconclusive [inhibitor, single point]
COc1ccc(CCNC(=O)c2ccc(N(C)S(=O)(=O)c3ccc(C)cc3)cc2)cc1 | inconclusive [inhibitor, single point]
CCOc1ccc(-n2c(=O)c3c(C)c(C(=O)N(C)C)sc3n(Cc3cc(C)ccc3C)c2=O)cc1 | inactive
COc1cccc(NC(=S)Nc2ccc(Br)cc2Cl)c1 | inactive
COCC(=O)Nc1c(C(=O)Nc2ccc(C)cc2)oc2ccccc12 | inconclusive [inhibitor, single point]
O=C(Cn1c(O)c(/C=C2\C=Nc3ccc(Br)cc32)sc1=O)N1CCCC1 | inconclusive [inhibitor, single point]
CC(=C/C(=O)O)/C=C/c1ccco1 | inconclusive [inhibitor, partial curve]
N#CC1=C(N)Oc2n[nH]c(-c3ccccc3)c2C1c1ccsc1 (stereo not drawn) | inconclusive [inhibitor, single point]
CCOc1ccc(/C=N/N(C)c2ccccc2)cc1OC | inconclusive [activator, single point]
Cc1ccc(S(=O)(=O)C(CNS(=O)(=O)c2ccc(F)c(C(F)(F)F)c2)c2ccco2)cc1 (stereo not drawn) | inactive
CCOc1cccc(NC(=O)C2CC(=O)N(C)C(=Nc3ccc(OC)cc3)S2)c1 (stereo not drawn) | inconclusive [inhibitor, partial curve]
Cc1ccc(Cl)cc1Nc1nn2c(=O)c3ccc(C(=O)NC(C)c4ccccc4)cc3nc2s1 (stereo not drawn) | inconclusive [inhibitor, single point]
N#Cc1c(C(F)(F)F)cc(-c2cccs2)nc1SCc1ccccc1F | inconclusive [inhibitor, single point]
CC1CCc2c(sc3nc(CN4CCOCC4)nc(N4CCc5ccccc5C4)c23)C1 (stereo not drawn) | inactive
CCCOC(=O)c1c(NC(=O)C2C3C=CC(C3)C2C(=O)O)sc2c1CCC(C)C2 (stereo not drawn) | inconclusive [inhibitor, single point]

Structure (SMILES) | Potency
CC(C)CCN(C)c1ccc(/C=N/n2cnnc2)cc1 | inconclusive [activator, partial curve, poor fit]
O=C1C2C=CC=CC2=NC(=S)N1CCN1CCC(=C(c2ccc(F)cc2)c2ccc(F)cc2)CC1 (stereo not drawn) | inconclusive [inhibitor, full curve]
COc1ccccc1NS(=O)(=O)c1cc(NC(=O)c2[nH]c(C)c(C(C)=O)c2C)ccc1N1CCOCC1 | inconclusive [inhibitor, single point]
Cc1cc(NC(=O)c2cnc3c(-c4ccccc4)c(C)nn3c2C)ccc1Br | inconclusive [inhibitor, partial curve, poor fit]
Cc1cc(C)cc(Oc2cc(NC(=O)c3cn(C)nc3C)cc([N+](=O)[O-])c2)c1 | inconclusive [inhibitor, partial curve]
CC1(C)Cc2c(sc3[nH]c(=S)n(Cc4ccco4)c(=O)c23)CO1 | inconclusive [inhibitor, partial curve]
Cc1ccccc1NC(=O)C1C2/C=C\CCCCC21 (stereo not drawn) | inactive
CCOC(=O)c1ccc(NC(=S)N2CCN(CCN=CC3=C(O)CC(C)(C)CC3=O)CC2)cc1 | inactive
O=C(NCCc1c[nH]c2ccccc12)[C@@H]1C[C@H]1[C@@H](NP(=O)(c1ccccc1)c1ccccc1)c1ccccc1 | inconclusive [inhibitor, single point]
CCn1c(SCC(=O)N2CCOCC2)nc2c(c1=O)SC(C)C2 (stereo not drawn) | inactive
CN(C)c1ccc(/C=C/C=C2/SC(=S)N(c3ccccc3)C2=O)cc1 | inactive
CC(=O)c1cccc(NC2c3ccccc3C(=O)N2Cc2ccco2)c1 (stereo not drawn) | inactive
CC(C)C[C@H](NC(=O)OC(C)(C)C)C(=O)N/N=C/C1=Cc2ccccc2OC1C (stereo partly drawn) | inconclusive [inhibitor, single point]
CCOc1cccc(CNc2ccc(O)cc2)c1OCc1ccc(Cl)cc1 | active: 12.6 µM
Cc1cccc(-n2c(-c3csc(C(C)C)c3)n[nH]c2=S)c1 | inactive
O=C(N/N=C/c1cc(Br)ccc1O)c1ccncc1 | inconclusive [activator, single point]
COC(=O)CCC(=O)OC1(C)C(=O)C=C2C=C(C3CC3)N(Cc3ccccc3)C=C2C1=O (stereo not drawn) | inconclusive [inhibitor, partial curve]
O=C(c1ccccc1)[C@@H]1[C@@H](C(=O)c2ccc(F)cc2)[C@@]2(C(=O)Nc3ccccc32)[C@H]2c3ccccc3C=CN12 | inactive
CCNCC(=O)N1c2ccccc2CCc2ccc(NC(C)=O)cc21 | inactive
Cc1c(Cl)cccc1NC(=O)Nc1ccc2snnc2c1 | active: 17.8 µM
CC1CC(C)(C)n2c(O)c(N=NC(N)=S)c3cccc1c32 (stereo not drawn) | inconclusive [inhibitor, single point]
COC(=O)c1ccc(NC(=O)CN(Cc2ccccc2)S(=O)(=O)c2ccc(Cl)cc2)cc1 | inconclusive [inhibitor, full curve, poor fit]
COc1cc(C(=O)NNC(=O)c2ccc(NC(C)=O)cc2)cc(OC)c1OC | inconclusive [inhibitor, partial curve]

Structure (SMILES) | Potency
Cc1ccc(CS(=O)(=O)c2ncc(Cl)c(C(=O)Nc3nnc(C(C)C)s3)n2)cc1 | inconclusive [inhibitor, partial curve]
CC(=O)N1CCCc2cc(S(=O)(=O)Nc3ccc(C)cc3C)ccc21 | inconclusive [inhibitor, single point]
Cc1cc(N2CCCC2)ccc1/C=N/n1cnnc1 | inactive
Fc1ccccc1NC(=S)Nc1cccc2cnccc12 | inconclusive [inhibitor, single point]
CCN(CC)S(=O)(=O)c1ccc2[nH]cc(C(=O)NCCC3=CCCCC3)c(=O)c2c1 | active: 11.2 µM
CN(C1CCCCC1)S(=O)(=O)c1ccc(NC(=O)c2ccco2)cc1 | inconclusive [inhibitor, partial curve]
COc1ccc(C(=O)NCC(=O)OCC(=O)NCCC2=CCCCC2)cc1 | inactive
Cc1ccc2c(CC(=O)Nc3ccc(S(=O)(=O)N4CCCCC4)cc3)coc2c1C | inconclusive [inhibitor, partial curve]
COc1cc(CN(C(=O)c2ccccc2F)C2CCS(=O)(=O)C2)cc(OC)c1OC (stereo not drawn) | inactive
CCn1c(SCC(=O)NNC(=O)c2ccc(C)cc2)nnc1-c1ccco1 | inactive
S=C(Nc1ccccc1)N1CCC(C2CCN(C(=S)Nc3ccccc3)CC2)CC1 | inactive
COC(=O)c1ccc(OCC(O)CN2C(=O)NC(C)(C)C2=O)cc1 (stereo not drawn) | inconclusive [inhibitor, full curve, poor fit]
Cc1ccc(Cl)cc1-n1nnc(-c2nc(-c3ccc4c(c3)OCO4)no2)c1C | inconclusive [inhibitor, full curve, poor fit]
CSc1ccccc1C(=O)NC1CCCC1 | inconclusive [inhibitor, partial curve, poor fit]
Cc1ccc(C(=O)Nc2nc(=O)n(C(=O)c3ccccc3C)s2)cc1 | inconclusive [inhibitor, partial curve]
CCOc1ccc(/C=C/C(=O)Nc2ccc3nc(N(CC)CC)cc(C)c3c2)cc1OC | inconclusive [activator, single point]
CC(C)(C)c1ccc(NC(=O)c2c(F)cccc2Cl)cc1 | inconclusive [inhibitor, single point]
COc1ccc(-c2cnn3c(N)c(S(=O)(=O)c4ccccc4)cnc23)cc1 | inconclusive [inhibitor, single point]
CCS(=O)(=O)N1CCC(C(=O)c2ccc(Cl)cc2)CC1 | inconclusive [inhibitor, full curve, poor fit]
Oc1ccccc1-c1cc(-c2ccccc2Cl)[nH]n1 | inconclusive [inhibitor, single point]
Cc1ccn2c(NC3CCCC3)c(-c3ccncc3)nc2c1 | inconclusive [inhibitor, single point]
CC(C)Cn1c(N)c(C(=O)COC(=O)c2cc(C(F)(F)F)nc3c(C(F)(F)F)cccc23)c(=O)n(C)c1=O | inconclusive [inhibitor, single point]
